Measured values from PMC7819943, “Rice protein-binding microarrays: a tool to detect cis-acting elements near promoter regions in rice”.
This is one part of the list.

The sequences below were run against T1, OsWOX13 (Oryza sativa, UniProt Q5QMM3 1-267) (assay: protein-binding microarray (RPBM); PBS, 2% BSA, 51.3 ng/ul salmon testes DNA, 50 uM zinc acetate, 200 nM TF, 25 C, 1 h; high values mean tight binding). Details: protein: recombinant; tags: N-terminal polyhistidine and DsRed monomer fusion (pET32a); label: CyDye5-dUTP incorporated in the synthesized complementary strand; 3' TTTTT single-stranded linker to array surface; dsDNA, one strand shown.
T1 sequence: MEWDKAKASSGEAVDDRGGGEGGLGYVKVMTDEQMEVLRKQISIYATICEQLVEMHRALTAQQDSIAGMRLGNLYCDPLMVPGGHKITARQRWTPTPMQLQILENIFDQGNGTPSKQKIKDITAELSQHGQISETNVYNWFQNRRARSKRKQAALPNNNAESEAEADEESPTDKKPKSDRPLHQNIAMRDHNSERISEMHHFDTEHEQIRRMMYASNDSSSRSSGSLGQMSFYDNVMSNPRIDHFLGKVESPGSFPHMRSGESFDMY
How it was run: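 Transcription factors, each fused N-terminally to a polyhistidine tag and DsRed, were expressed in E. coli BL21-CodonPlus and purified on Ni–NTA. A custom Agilent array was made double-stranded by primer extension with Cy5-dUTP and blocked with 2% BSA. It was incubated with 200 nM protein in PBS, 2% BSA, salmon testes DNA and 50 µM zinc acetate at 25 °C for 1 h, then washed. The binding signal is per-feature fluorescence intensity (arbitrary units) read on an Axon 4000B scanner.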

Sequence	binding signal
TAACTAAATTTATAGACAAATATAGTAATATTTATAATACCGGAGTCACCTAGTGCAG	7770 fluorescence intensity (a.u.)
TTCTGATTAGGCTGCCACATTGGCGGCACGTGTGATAGCTCGGAGTCACCTAGTGCAG	29100 fluorescence intensity (a.u.)
AGGCACTAAAATAATCTAATTGATTAACTAATCGGTCACCCGGAGTCACCTAGTGCAG	25300 fluorescence intensity (a.u.)
ATATTTCTTTGTCAAGTTTGATTACTGGCTCGACATGGGGCGGAGTCACCTAGTGCAG	3560 fluorescence intensity (a.u.)
ATATAAATATTAGTAATCAATTGAGGGAACATTTGATTTGCGGAGTCACCTAGTGCAG	11300 fluorescence intensity (a.u.)
GGAGATTGAGATGGTCGGAAATTTAAACAAGACGCTTTCTCGGAGTCACCTAGTGCAG	9750 fluorescence intensity (a.u.)
ATCCGACAAAGTGATTTGTAAGATTGTTCACAAAATGTACCGGAGTCACCTAGTGCAG	3290 fluorescence intensity (a.u.)
ATATATATATATATATATATATAAGTTTCCACGAATAAGGCGGAGTCACCTAGTGCAG	16300 fluorescence intensity (a.u.)
GCTAATTAAGCTTCCAACTCTGCCTCGCCCTCGCTCTCCTCGGAGTCACCTAGTGCAG	24500 fluorescence intensity (a.u.)
GATCCTTCAAGCATCAATCACCTACCGATTTACCAACCCACGGAGTCACCTAGTGCAG	3920 fluorescence intensity (a.u.)
TGGTGTAGAGAAGTACAATACATGTATGCAAGCTTACATGCGGAGTCACCTAGTGCAG	7210 fluorescence intensity (a.u.)
CCGAAATTGTGAACCCTGAGCTAGTCAGTCCCATCCTTTTCGGAGTCACCTAGTGCAG	3650 fluorescence intensity (a.u.)
CCTGCCAATCTACCATACATGCACCACTGCTCCACCGCCACGGAGTCACCTAGTGCAG	3460 fluorescence intensity (a.u.)
CAACATGTTTGACTAATTACATAGTGTATTGATCCCAAGGCGGAGTCACCTAGTGCAG	6530 fluorescence intensity (a.u.)
GCTCGATCCATTTAGGTAATTACTGCTCAACTAGCGATGACGGAGTCACCTAGTGCAG	10300 fluorescence intensity (a.u.)
AGATAATTGTGTCATCAGGAGGCCATGGCCATGATAGCAACGGAGTCACCTAGTGCAG	15000 fluorescence intensity (a.u.)
TCAAATCTTACATGTAAATTTTAAAATTTACATTGTAATTCGGAGTCACCTAGTGCAG	7560 fluorescence intensity (a.u.)
AGCCTAATTAATACATAATTAGCACATGTTTACTGTAGCACGGAGTCACCTAGTGCAG	55100 fluorescence intensity (a.u.)
TCTACTAATTAGGGATATTTTGGTCCATTATCCTTCTCCCCGGAGTCACCTAGTGCAG	38300 fluorescence intensity (a.u.)
CCAAACTGGGCTTAACCGAACGCACACTTTCTTGTAGGCCCGGAGTCACCTAGTGCAG	8040 fluorescence intensity (a.u.)
GCAATAATCAATCTATATAAGCTAACACAATTGTTGACAACGGAGTCACCTAGTGCAG	16800 fluorescence intensity (a.u.)

Sequence	binding signal
CATTATCAATTCCCTCGTGTAAACTCCCAATCTCCTTCCCCGGAGTCACCTAGTGCAG	3650 fluorescence intensity (a.u.)
CATGATTGGTTGAAAGTTGCCTGAATTCCAAGTCAAACTCCGGAGTCACCTAGTGCAG	23000 fluorescence intensity (a.u.)
TTATCTCATGGTATTCTAATTGACAGTGGGAAGCAACATGCGGAGTCACCTAGTGCAG	8500 fluorescence intensity (a.u.)
GGAAAGTGATTATTAGAGTTTGTGTCGAATATGTGTACAACGGAGTCACCTAGTGCAG	7650 fluorescence intensity (a.u.)
AAGAATTAATTAATGTTTAACTAGATGGCCTTATTATCTCCGGAGTCACCTAGTGCAG	34300 fluorescence intensity (a.u.)
TTACTTAATTAGAGTGCATGTTTACCTATTCAAAAGTGTTCGGAGTCACCTAGTGCAG	27400 fluorescence intensity (a.u.)
TTTGAGCATAATTACGCCATAATTTAACAATGTGGTGCTTCGGAGTCACCTAGTGCAG	30200 fluorescence intensity (a.u.)
TGTAACTCGTTAATTTATAGTCCTCATATTTTATCAATTCCGGAGTCACCTAGTGCAG	7980 fluorescence intensity (a.u.)
GAAAATTAGATGGGACACATCCTATTAGTACAAACTTAAGCGGAGTCACCTAGTGCAG	11400 fluorescence intensity (a.u.)
GTGCATGATGATTGTAAGATAAATGTAGCGTCAAGTAACACGGAGTCACCTAGTGCAG	15700 fluorescence intensity (a.u.)
ATGTTTAACGTTAACGTCGTAATTAAATGACACAAACCGACGGAGTCACCTAGTGCAG	13400 fluorescence intensity (a.u.)
CTTAACAACAACAAACTGGTTGGGACAGTACCATCTCTAGCGGAGTCACCTAGTGCAG	5690 fluorescence intensity (a.u.)
AATCAATAAATTATTAATAACATTAGTACCTGGTTGAACGCGGAGTCACCTAGTGCAG	14800 fluorescence intensity (a.u.)
CCCTAATGAGTTACTATTATAGATGCGCTTGTCTTCAACGCGGAGTCACCTAGTGCAG	5210 fluorescence intensity (a.u.)
ATAATTTGCAGACTTAATATTATCCAAGAAGATAGGAGTACGGAGTCACCTAGTGCAG	5140 fluorescence intensity (a.u.)
ACCTCGATTACTAAATTATAGTCTCTTGCACACCGATGAACGGAGTCACCTAGTGCAG	10500 fluorescence intensity (a.u.)
CAAAATAATATATTAATTCTAGACTAATGACAACATGCACCGGAGTCACCTAGTGCAG	4940 fluorescence intensity (a.u.)
TTATTTTGTGATTACTATCTCTCCGTTCATGTTTCTATCTCGGAGTCACCTAGTGCAG	5480 fluorescence intensity (a.u.)
ATATAATGGACTACAGCACATTGGTTCCCATTTGCGTTAGCGGAGTCACCTAGTGCAG	3260 fluorescence intensity (a.u.)
CCATTTACTAGCTGATTGGGCTCGAGATAGATTTGGTAAACGGAGTCACCTAGTGCAG	14200 fluorescence intensity (a.u.)
GACGATGATTGATCCAATGAAAACCCTTCAAACAAAGGTTCGGAGTCACCTAGTGCAG	48900 fluorescence intensity (a.u.)
